# Measured values as given in the supplement of paper PMC8728848.
# The other results are listed elsewhere or left out.
# B1: Mermaid3 (Stilbonema majum) (protein)
# chain: MGSSHHHHHHSSGLVPRGSHMAASGWLRSPQGTVVKLYRRSLSWSKADEFCKDVDGRLVVDRTADMHLFLIKNVLKEKKSRVWVGLRRTASHSRTWIWSDGTRQNEGDLDANLWLRDEPNDAAGEEECALFMYSPWEKAWGLNDYLCRGGCRNYQFICEKWIR
# Key:
# Test in all cases: glycan array binding signal (z-score within array); higher = stronger binding
# Settings in all cases: glycan notation: IUPAC condensed, linker removed
# [1] = target: Gal(b1-4)GlcNAc(b1-2)Man(a1-6)[Man(a1-3)]Man(b1-4)GlcNAc(b1-4)GlcNAc
# In short: (§1)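 Glycan array data were curated from 3228 arrays in the Consortium for Functional Glycomics database and kept only where the protein sequence was available. Glycan names were converted to IUPAC-condensed notation, and columns mapping to the same glycan were averaged. The binding signal is a within-array Z-score, averaged across arrays of the same protein sequence at different concentrations or buffers and across linkers. Negative Z-scores can be read as non-binding.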
# [2] = target: Gal(b1-4)GlcNAc(b1-2)[Gal(b1-4)GlcNAc(b1-4)]Man(a1-3)[Gal(b1-4)GlcNAc(b1-2)Man(a1-6)]Man(b1-4)GlcNAc(b1-4)GlcNAc
# In short: as §1
# [3] = target: Gal(b1-4)GlcNAc(b1-2)[Gal(b1-4)GlcNAc(b1-4)]Man(a1-3)[Gal(b1-4)GlcNAc(b1-2)[Gal(b1-4)GlcNAc(b1-6)]Man(a1-6)]Man(b1-4)GlcNAc(b1-4)GlcNAc
# In short: as §1
# [4] = target: Gal(b1-4)GlcNAc(b1-2)[Gal(b1-4)GlcNAc(b1-4)]Man(a1-3)[GlcNAc(b1-4)][Gal(b1-4)GlcNAc(b1-2)Man(a1-6)]Man(b1-4)GlcNAc(b1-4)GlcNAc
# In short: as §1
# [5] = target: Gal(b1-4)GlcNAc(b1-2)[Gal(b1-4)GlcNAc(b1-4)]Man(a1-3)[GlcNAc(b1-4)][Gal(b1-4)GlcNAc(b1-2)[Gal(b1-4)GlcNAc(b1-6)]Man(a1-6)]Man(b1-4)GlcNAc(b1-4)GlcNAc
# In short: as §1
# [6] = target: Gal(b1-4)GlcNAc(b1-2)[Gal(b1-4)GlcNAc(b1-6)]Man(a1-6)[Gal(b1-4)GlcNAc(b1-2)Man(a1-3)]Man(b1-4)GlcNAc(b1-4)GlcNAc
# In short: as §1
# [7] = target: Gal(b1-4)GlcNAc(b1-2)[Gal(b1-4)GlcNAc(b1-6)]Man(a1-6)[Gal(b1-4)GlcNAc(b1-2)Man(a1-3)]Man(b1-4)GlcNAc(b1-4)[Fuc(a1-6)]GlcNAc
# In short: as §1
# [8] = target: Gal(b1-4)GlcNAc(b1-2)[Gal(b1-4)GlcNAc(b1-6)]Man(a1-6)[GlcNAc(b1-4)][Gal(b1-4)GlcNAc(b1-2)Man(a1-3)]Man(b1-4)GlcNAc(b1-4)GlcNAc
# In short: as §1
# [9] = target: Gal(b1-4)GlcNAc(b1-2)[Gal(b1-4)GlcNAc(b1-6)]Man(a1-6)[GlcNAc(b1-4)][Gal(b1-4)GlcNAc(b1-2)[Gal(b1-4)GlcNAc(b1-4)]Man(a1-3)]Man(b1-4)GlcNAc(b1-4)[Fuc(a1-6)]GlcNAc
# In short: as §1
# [10] = target: Gal(b1-4)GlcNAc(b1-3)Gal(b1-3)GalNAc
# In short: as §1
# [11] = target: Gal(b1-4)GlcNAc(b1-3)Gal(b1-3)GlcNAc
# In short: as §1
# [12] = target: Gal(b1-4)GlcNAc(b1-3)Gal(b1-4)Glc
# In short: as §1
# [13] = target: Gal(b1-4)GlcNAc(b1-3)Gal(b1-4)GlcNAc
# In short: as §1
# [14] = target: Gal(b1-4)GlcNAc(b1-3)Gal(b1-4)GlcNAc(b1-2)Man(a1-3)[Gal(b1-4)GlcNAc(b1-3)Gal(b1-4)GlcNAc(b1-2)Man(a1-6)]Man(b1-4)GlcNAc(b1-4)GlcNAc
# In short: as §1
# [15] = target: Gal(b1-4)GlcNAc(b1-3)Gal(b1-4)GlcNAc(b1-2)Man(a1-3)[Gal(b1-4)GlcNAc(b1-3)Gal(b1-4)GlcNAc(b1-2)Man(a1-6)]Man(b1-4)GlcNAc(b1-4)[Fuc(a1-6)]GlcNAc
# In short: as §1
# [16] = target: Gal(b1-4)GlcNAc(b1-3)Gal(b1-4)GlcNAc(b1-2)[Gal(b1-4)GlcNAc(b1-3)Gal(b1-4)GlcNAc(b1-6)]Man(a1-6)[Gal(b1-4)GlcNAc(b1-3)Gal(b1-4)GlcNAc(b1-2)Man(a1-3)]Man(b1-4)GlcNAc(b1-4)GlcNAc
# In short: as §1
# [17] = target: Gal(b1-4)GlcNAc(b1-3)Gal(b1-4)GlcNAc(b1-2)[Gal(b1-4)GlcNAc(b1-3)Gal(b1-4)GlcNAc(b1-6)]Man(a1-6)[Gal(b1-4)GlcNAc(b1-3)Gal(b1-4)GlcNAc(b1-2)Man(a1-3)]Man(b1-4)GlcNAc(b1-4)[Fuc(a1-6)]GlcNAc
# In short: as §1
# [18] = target: Gal(b1-4)GlcNAc(b1-3)Gal(b1-4)GlcNAc(b1-3)Gal(b1-4)GlcNAc
# In short: as §1
# [19] = target: Gal(b1-4)GlcNAc(b1-3)Gal(b1-4)GlcNAc(b1-3)Gal(b1-4)GlcNAc(b1-2)Man(a1-3)[Gal(b1-4)GlcNAc(b1-3)Gal(b1-4)GlcNAc(b1-3)Gal(b1-4)GlcNAc(b1-2)Man(a1-6)]Man(b1-4)GlcNAc(b1-4)GlcNAc
# In short: as §1
# [20] = target: Gal(b1-4)GlcNAc(b1-3)Gal(b1-4)GlcNAc(b1-3)Gal(b1-4)GlcNAc(b1-2)Man(a1-3)[Gal(b1-4)GlcNAc(b1-3)Gal(b1-4)GlcNAc(b1-3)Gal(b1-4)GlcNAc(b1-2)Man(a1-6)]Man(b1-4)GlcNAc(b1-4)[Fuc(a1-6)]GlcNAc
# In short: as §1
# [21] = target: Gal(b1-4)GlcNAc(b1-3)Gal(b1-4)GlcNAc(b1-3)Gal(b1-4)GlcNAc(b1-2)[Gal(b1-4)GlcNAc(b1-3)Gal(b1-4)GlcNAc(b1-3)Gal(b1-4)GlcNAc(b1-6)]Man(a1-6)[Gal(b1-4)GlcNAc(b1-3)Gal(b1-4)GlcNAc(b1-3)Gal(b1-4)GlcNAc(b1-2)Man(a1-3)]Man(b1-4)GlcNAc(b1-4)[Fuc(a1-6)]GlcNAc
# In short: as §1
# [22] = target: Gal(b1-4)GlcNAc(b1-3)Gal(b1-4)GlcNAc(b1-3)Gal(b1-4)GlcNAc(b1-3)Gal(b1-4)GlcNAc(b1-2)Man(a1-3)[Gal(b1-4)GlcNAc(b1-3)Gal(b1-4)GlcNAc(b1-3)Gal(b1-4)GlcNAc(b1-3)Gal(b1-4)GlcNAc(b1-2)Man(a1-6)]Man(b1-4)GlcNAc(b1-4)GlcNAc
# In short: as §1
binder,measurement,setting,value
B1,glycan array binding signal (z-score),[1],-0.553
same,glycan array binding signal (z-score),[2],0.021
same,glycan array binding signal (z-score),[3],-0.626
same,glycan array binding signal (z-score),[4],-0.574
same,glycan array binding signal (z-score),[5],-0.699
same,glycan array binding signal (z-score),[6],-0.312
same,glycan array binding signal (z-score),[7],-0.123
same,glycan array binding signal (z-score),[8],0.3
same,glycan array binding signal (z-score),[9],-0.562
same,glycan array binding signal (z-score),[10],-0.579
same,glycan array binding signal (z-score),[11],-0.723
same,glycan array binding signal (z-score),[12],0.34
same,glycan array binding signal (z-score),[13],-0.211
same,glycan array binding signal (z-score),[14],-0.436
same,glycan array binding signal (z-score),[15],-0.061
same,glycan array binding signal (z-score),[16],3.51
same,glycan array binding signal (z-score),[17],-0.136
same,glycan array binding signal (z-score),[18],-0.799
same,glycan array binding signal (z-score),[19],-0.127
same,glycan array binding signal (z-score),[20],-0.217
same,glycan array binding signal (z-score),[21],0.233
same,glycan array binding signal (z-score),[22],0.149
